From PubChem BioAssay AID1346428 (National Center for Advancing Translational Sciences (NCATS), 2018) come the findings set out here.

The campaign covered roughly 48,000 compounds. About 1,200 (2.5%) were called active. Not shown: some 2% with an inconclusive outcome.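 Rule for the calls: active = activation of at least 60% and not above a set upper limit (about 1 call in 100 departs from these limits); inconclusive = activation of 40% to 60%, or above that upper limit; inactive = activation under 40%.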 Some of the results follow.

UniProt O75388, sequence (O75388 whole entry, looked up): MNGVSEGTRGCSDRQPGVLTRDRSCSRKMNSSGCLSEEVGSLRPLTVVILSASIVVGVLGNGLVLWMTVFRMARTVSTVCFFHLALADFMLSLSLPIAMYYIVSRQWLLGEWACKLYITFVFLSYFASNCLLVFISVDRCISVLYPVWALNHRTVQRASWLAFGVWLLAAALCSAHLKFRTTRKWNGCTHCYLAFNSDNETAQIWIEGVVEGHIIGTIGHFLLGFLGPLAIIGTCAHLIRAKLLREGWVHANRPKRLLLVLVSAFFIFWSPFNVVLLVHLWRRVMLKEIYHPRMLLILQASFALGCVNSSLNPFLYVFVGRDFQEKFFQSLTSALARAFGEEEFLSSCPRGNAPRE

The experiment has as its target Probable G-protein coupled receptor 32 (Homo sapiens) (UniProt O75388). As to the kind of experiment: qHTS for Agonists of Human Resolvin D1 Receptor DRV1. Note: 0% is about no effect. The following applies: CHO-K1 GPR32 beta-arrestin PathHunter luminescence, 90 min; at 76.9 µM; hits give high values; zero percent set by DMSO-only wells. In short, it runs like this:
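Luminescent readout of beta-Gal complementation quantifies ligand-induced beta-arrestin association with GPR32 in CHO-K1 cells; 90 min compound incubation at 37 °C, detection 1 h at room temperature.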
In general terms: Quantitative high-throughput screening tests each substance at several concentrations.
Regarding `Cc1cc(Cl)ccc1OCC(=O)N(Cc1ccc(N(C)C)cc1)C1CCS(=O)(=O)C1` (centres undefined), the activation was inactive: -34.4%.

With `CCCn1cc(S(=O)(=O)c2cccc(Cl)c2)c(=O)c2cc(F)c(N3CCCC3)cc21`, the activation is inactive: -16.9%.

With `Cc1cccc(C(C)C)c1NC(=O)c1ccc2c(c1)CCCN2S(C)(=O)=O`, the activation is inactive: -3.42%.

Regarding `Cc1ccc(NC(=O)CSc2nccn2C2CCCC2)cc1Cl`, the activation is inactive: -0.612%.

Turning to `CCOC(=O)c1cc(-c2ccc(C)cc2)n(CC(=O)Nc2ccc(OC)cc2OC)c1C`, the activation was inactive: 4.68%.

With `Cc1ccc(S(=O)(=O)CCC(=O)N2CCN(c3nc4c(C)c(C)ccc4s3)CC2)cc1`, the activation was inactive: 28.6%.

In the case of `Cc1ccc(S(=O)(=O)N(CC(=O)NCCSc2ccc(Cl)cc2)c2cccc(Cl)c2)cc1`, the activation was inactive: -1.94%.

As to `CCN1CCN(C(c2ccc(F)cc2)c2sc3nc(-c4ccco4)nn3c2O)CC1` (centres undefined), the activation was inactive: -5.78%.

Regarding `CC(=O)N1CCCC1c1nc2ccccc2n1Cc1ccccc1F` (centres undefined), the activation was inactive: -4.94%.

Consider `CCC(C)NC(=O)c1cnn(-c2cccc(F)c2)c1-n1cccc1` (centres undefined), for which the activation was inactive: -0.359%.

With `Cc1ccc(OCC(=O)Nc2nonc2-c2ccc(Br)cc2)cc1`, the activation is inactive: 22.3%.

Consider `COc1ccc(N2CCN(C(c3ccc(F)cc3)c3sc4nc(-c5ccco5)nn4c3O)CC2)cc1` (centres undefined), for which the activation was inactive: 16.4%.

For `CCc1cc(=O)[nH]c(SCc2nc(-c3ccc(C(F)(F)F)cc3)no2)n1`, the activation is inactive: -6.2%.

Take `CCCCCN(C)CCC(O)(P(=O)(O)O)P(=O)(O)O`: the activation was inactive: -9.22%.

Take `O=C(Nc1cccc2c1CCCC2)N1CCOc2ccc(Cl)cc21`: the activation was inactive: -29.8%.

Regarding `CC(C)OCCCNC(=O)CN1C(=O)c2ccccc2Sc2ncccc21`, the activation was inactive: 2.88%.

As to `CCCC(=O)Nc1ccc2nc(SCC(=O)N3CCOCC3)sc2c1`, the activation is inactive: -5.71%.

For the compound `Fc1ccc(N2CCN(c3ncnc4[nH]ncc34)CC2)cc1`, the activation is inactive: 17%.

For `N#C/C(=C\c1ccc(-c2cccc(Cl)c2)o1)C(=O)Nc1cccc(C(F)(F)F)c1`, the activation was inactive: 9.14%.

Consider `Cc1oc2ncnc(N3CCOCC3)c2c1C(=O)NCc1ccc(Cl)cc1`, for which the activation is inactive: -5.72%.

Turning to `COc1ccc(CNC(=O)c2cccn2-c2nnc(N3CCCCC3)s2)c(OC)c1`, the activation is inactive: -2.66%.

On to `C1N2CN3CN1CN(C2)C3`, for which the activation is inactive: -7.94%.

As to `COc1ccc(-c2cc(C(=O)NCCc3ccccc3)c3c(-c4ccc(Cl)cc4)[nH]nc3n2)cc1`, the activation was inactive: 1.5%.

Consider `COc1ccc(CCNC(=O)CS(=O)(=O)Cc2nc(-c3cccc(Cl)c3)oc2C)cc1OC`, for which the activation is inactive: 19.9%.
